# The whole screen tested about 48,000 compounds, of which about 450 (0.94%) were called active. Inconclusive results, whose numbers are uncertain, are shown with a selection of clear calls. Calls follow the shape of the dose curve; as a rule, active = well fitted inhibition curve with a large enough effect; inconclusive = small, poorly fitted or top-dose-only effect; inactive = no such curve, though single readings can be large or run the other way. Where the call is inconclusive, the potency comes from a doubtful curve fit.
# Experiment: Primary qHTS for Identification of Small Molecule Inhibitors of Huntingtin Promoter Activity; also: nearly all actives have a fitted effect of over 50% in size
# Details: HEK293 HTT promoter firefly luciferase reporter (activity 0% = vehicle and -100% = no light), 24 h; series mostly up to 57.5 µM
# Outline: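 HEK293 cells carrying firefly luciferase reporters were seeded at 2,500 per well in Opti-MEM and cultured for 24 h. They were then treated with compounds at up to 57.5 uM final for 24 h at 37 degrees C before Dual-Glo luminescence readout.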
# Potency is read from the fitted curve at half-maximal effect; tags tell the direction and shape of the fitted curve.
row,Compound,Potency
1,Cc1ccc(NC(=O)Nc2ccc3nc(N4CCN(C)CC4)cc(C)c3c2)cc1F,inactive
2,CSc1cccc(NC(=O)C2CCCN(C(=O)c3cnn(-c4ccc(F)cc4)c3-n3cccc3)C2)c1 (configuration not stated),"inconclusive: 22.4 µM [inhibitor, single point]"
3,CN(CC(=O)Nc1ccc(Br)cc1)S(=O)(=O)c1cccc2nsnc12,"inconclusive: 39.8 µM [inhibitor, single point]"
4,CN1C(=O)Cc2cc(S(=O)(=O)CCC(=O)N3CCN(c4ccc(Cl)cc4)CC3)ccc21,"inconclusive: 35.5 µM [inhibitor, partial curve]"
5,Cc1cc(C)c(NC(=O)C(=O)NCC(c2cccnc2)N2CCN(c3ccccc3F)CC2)c(C)c1 (configuration not stated),"inconclusive: 39.8 µM [inhibitor, single point]"
6,CC(=O)Nc1cccc(NC(=O)CSc2nccn2C2CCCC2)c1,"inconclusive: 35.5 µM [inhibitor, partial curve, poor fit]"
7,Cc1ccc2[nH]c(=O)c3cc(C(=O)N(CCCOC(C)C)Cc4ccco4)sc3c2c1,"inconclusive: 28.2 µM [inhibitor, partial curve, poor fit]"
8,COc1ccc(Cl)cc1NC(=O)CSc1nnc2[nH]c(=O)cc(-c3ccccc3)n12,inactive
9,COC(=O)c1cc2sc(Cl)cc2n1CC(=O)Nc1cc(OC)cc(OC)c1,inactive
10,O=C1CN(C(=O)COc2ccccc2)C(c2ccc(F)cc2)c2cc(Br)ccc2N1 (configuration not stated),"inconclusive: 31.6 µM [inhibitor, partial curve, poor fit]"
11,O=C(NCc1nc2ccccc2n1Cc1ccccc1Cl)c1ccccc1,"inconclusive: 22.4 µM [inhibitor, single point]"
12,O=C(Nc1ccccc1F)c1nc(SCc2ccccc2F)ncc1Cl,inactive
13,NC1(c2ccc(-c3nc4ccn5c(=O)[nH]nc5c4cc3-c3ccccc3)cc2)CCC1,"inconclusive: 4.32 µM [inhibitor, full curve] and inactive"
14,Cc1ccc2c(C)c(C(=O)NCC(c3ccc(Cl)cc3)N3CCOCC3)oc2c1 (configuration not stated),"inconclusive: 15.8 µM [inhibitor, partial curve]"
15,COc1cc(NC(=O)C2CCN(c3nnc(C)c4c(C)n(-c5ccccc5)nc34)CC2)cc(OC)c1,"inconclusive: 6.31 µM [inhibitor, full curve, poor fit]"
16,Cc1ccc(NC(=O)NC(C)c2c(-n3cccc3)sc(C)c2C)cc1F (configuration not stated),"inconclusive: 31.6 µM [inhibitor, single point]"
17,Cc1ccc(-n2c(=O)[nH]c3cc(C(=O)NCCc4ccccc4)ccc3c2=O)cc1,"inconclusive: 25.1 µM [inhibitor, partial curve, poor fit]"
18,CCC(c1ccc(O)cc1)C(CC)c1ccc(O)cc1 (configuration not stated),"inconclusive: 7.69 µM [inhibitor, single point]"
19,Cc1cc(C)cc(NS(=O)(=O)c2ccc3[nH]cc(C(=O)NCc4ccco4)c(=O)c3c2)c1,"inconclusive: 35.5 µM [inhibitor, partial curve, poor fit]"

row,Compound,Potency
1,O=C(/C=C/c1ccccc1)Nc1nc(-c2cccs2)ns1,inactive
2,CCCn1ccc2c(OCC(=O)Nc3ccc(C(F)(F)F)cc3)cccc2c1=O,inactive
3,CCC(O)c1nc2ccccc2n1CCOc1cc(C)cc(C)c1 (configuration not stated),"inconclusive: 35.5 µM [inhibitor, partial curve, poor fit]"
4,CCOc1ccccc1N(CC)C(=O)c1cc2c(=O)n(CC)c3ccccc3c2s1,"inconclusive: 28.2 µM [inhibitor, partial curve]"
5,Cc1cc(Nc2cccc(C(F)(F)F)c2)nc2ccc(NC(=O)c3cncc(Br)c3)cc12,"inconclusive: 25.1 µM [inhibitor, single point]"
6,Cc1ccc(OCC(=O)Nc2ccccc2C(=O)OCc2cc(=O)n3c(C)csc3n2)cc1,"inconclusive: 28.2 µM [inhibitor, partial curve, poor fit]"
7,CC(C(=O)NCc1ccc(Cl)cc1)n1ccc2cc(S(=O)(=O)N3CCCC3)ccc21 (configuration not stated),"inconclusive: 44.7 µM [inhibitor, partial curve, poor fit]"
8,CC[C@@]1(O)C(=O)OCc2c1cc1n(c2=O)Cc2cc3cc(O)ccc3nc2-1,"inconclusive: 0.0432 µM [inhibitor, full curve, poor fit]"
9,Cc1ccc(Cl)cc1N1CCN(S(=O)(=O)c2ccc3c(c2)CC(=O)N3C)CC1,"inconclusive: 1 µM [inhibitor, partial curve, poor fit]"
10,Cc1ccc(N(CC(=O)Nc2ccc(OC(F)(F)F)cc2)S(=O)(=O)c2c(C)noc2C)cc1,"inconclusive: 35.5 µM [inhibitor, single point]"
11,Cc1cccc(-c2[nH]c(C(C)(C)C)nc2-c2ccc3nccnc3c2)n1,"inconclusive: 17.2 µM [inhibitor, partial curve, poor fit]"
12,COc1cccc(N2CCN(C(=O)c3nc(-c4ccc(Cl)cc4)n4c3CCCCC4)CC2)c1,"inconclusive: 35.5 µM [inhibitor, single point]"
13,COC(=O)c1ccc(NC(=O)C2CCN(S(=O)(=O)c3ccc4c(c3)CCCN4C(C)=O)CC2)cc1,"inconclusive: 31.6 µM [inhibitor, partial curve, poor fit]"
14,CCc1nnc2n1N(C(C)=O)C(c1ccc(C(C)(C)C)cc1)=C(C(C)=O)S2,"inconclusive: 39.8 µM [inhibitor, single point]"
15,CCOC(=O)c1cc2c(=O)n3ccccc3nc2n(CC2CCCO2)c1=NC(=O)c1cc(C)cc(C)c1 (configuration not stated),"inconclusive: 3.55 µM [inhibitor, full curve, poor fit]"
16,Cc1[nH]c2ccccc2c1C1(O)C(=O)N(Cc2ccc(Cl)cc2)c2ccccc21 (configuration not stated),inactive
17,CCCCOc1ccc(C(=O)NCCc2csc3nc(-c4ccccc4F)nn23)cc1,"inconclusive: 31.6 µM [inhibitor, partial curve, poor fit]"
18,COCCn1c(CNC(=O)c2cc(OC)c(OC)c(OC)c2)nc2cccnc21,inactive
